Results published in the supplement of paper PMC10126150.
Values marked as one replicate rest on one cluster of the flow cell; about a third of the high ones do not repeat.

Tested on: ATP
Assay: switch fluorescence ratio, 500 uM ATP over buffer (Cy3 cluster intensity, sum of 5 cycles each) (fold (ratio)); higher = stronger signal-on switching upon ATP binding; sequences stand for … in TCGTCGGCAGCGTCAGATGTGTATAAGAGACAGTTTTTTTTTTTTTTTTTTTTTTTTT…TC
Conditions: aptamer strand: ATP DNA aptamer (quencher-CACCTGGGGGAGTATTGCGGAGGAAGG + anchor), 100 nM annealed; ATP concentration: 500 uM; one replicate
How it was run: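 Per cluster, summed Cy3 intensity from the target cycles was divided by that from the buffer cycles to give the fluorescence ratio, then averaged per switch-domain sequence. Clusters outside 100-1000 RFU were excluded. The Cy3-labelled switching-strand clusters, on a modified Illumina MiSeq flow-cell, were annealed to 100 nM quencher-labelled ATP aptamer and imaged in selection buffer, then after 15 min with 500 uM ATP at 22 °C, for five cycles with NaOH stripping and re-annealing between them.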
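Note: ATP exposure 15 min at 22 °C before imaging.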

| Sequence | switch fluorescence ratio |
| --- | --- |
| GCGTGGGTTA | 1.05 |
| AGACCGTTAA | 1.01 |
| TGTATTGTAG | 0.974 |
| GCGATGCGGC | 1.14 |
| TGGAAACGGA | 0.985 |
| ACACCGGAAA | 1.04 |
| ACCGCGCTTA | 1.14 |
| ATGCATAAAA | 1.02 |
| CACAGCATGT | 1.02 |
| GAACGGACCT | 1.37 |
| TACGAGGATC | 1.02 |
| CGTTGCATT | 1.01 |
| GAATCGAGTC | 0.979 |
| AACACAACG | 1.16 |
| AGAACATTC | 1.01 |
| TCTCAAGGTC | 1.01 |
| CCGGCCGAGT | 1.05 |
| GTTGCCCCCA | 1.02 |
| CGGAGGGTTT | 0.978 |
| ATGCACAGTG | 1.07 |
| TTCACCTTTT | 1.03 |
| ATTAGCCA | 0.936 |
| ATCGGTACCG | 0.981 |

| Sequence | switch fluorescence ratio |
| --- | --- |
| TCAGAGCGGG | 0.999 |
| AAAACTTGTA | 0.971 |
| GACACGTGAG | 1 |
| AGATACCG | 1.06 |
| CTTGGAGATT | 1.01 |
| GTTACGGTGC | 1.06 |
| GGTCTATGCC | 1.01 |
| TTTGGCGCTA | 0.973 |
| TACTCCTTCA | 1.38 |
| CTAGGCGTTC | 0.993 |
| GTCAATGCGT | 1.08 |
| CGGCCGGTTT | 1 |
| GATAACATCC | 0.98 |
| AACTAGCACT | 1.04 |
| TGTTTTGCAG | 1.04 |
| AACATACCTG | 1.14 |
| ACTGCGATG | 1.07 |
| TCACGTGCTA | 1.03 |
| AATCAGATAA | 1.04 |
| TGATACTCAG | 1.1 |
| TGAGGGACAA | 1 |
| AATGGGTG | 1.08 |
| TGCTGGAGAG | 0.997 |

| Sequence | switch fluorescence ratio |
| --- | --- |
| GGGTAGATAA | 1.01 |
| CTTATGCCGC | 0.934 |
| CAATTTGAGC | 1.28 |
| CGCTTTGGTG | 1.05 |
| AACCATAGTT | 0.944 |
| AGGCAGCG | 1.03 |
| CGGGAGGTCC | 0.928 |
| AACCCTTGAA | 0.979 |
| TAGTTAAGTT | 1.16 |
| CTCAATCTTA | 0.966 |
| TGATCCCTAC | 1.12 |
| TAAAGGCATT | 1.01 |
| TCAGGAACGT | 1.08 |
| GCGTTCAGAG | 0.99 |
| TCTGATATTC | 1.01 |
| CTTGGTAACG | 0.997 |
| CACTCGGGCC | 0.981 |
| TTGGCAGTAG | 1.08 |
| TTGGGCTATC | 0.966 |
| ATCAATCGCG | 0.978 |
| GGGGGGCCCC | 1.04 |
| CAGCGGTTTT | 1.01 |
| TTATATTT | 1.01 |

| Sequence | switch fluorescence ratio |
| --- | --- |
| TTGGTCTGTT | 0.976 |
| TATTACCTTT | 0.958 |
| TGGGGATGAA | 1.02 |
| TAGCAGAA | 1.6 |
| GGGGACGCGT | 1.07 |
| GATTCTTCGG | 0.956 |
| AAAGTACGGA | 1.18 |
| TGAAGCGTCA | 1.03 |
| CAAAGCGAGC | 1.02 |
| TCAGACTTGG | 1.05 |
| GGCCTCGCTA | 1.09 |
| CGGATCAACC | 1.02 |
| GATTAACGTA | 1.11 |
| CACATCGTTA | 0.969 |
| CAATTAAGCG | 0.984 |
| ATCAGCATAT | 1.35 |
| AAGCGTGTTC | 1.05 |
| AATGACAGGA | 1.01 |
| TCACACTCAG | 1.07 |
| GGGTGGCGGG | 0.924 |
| CTGGTGAACG | 1.03 |
| ATATTAAGT | 0.972 |
| TAACTGGTCA | 1.02 |

| Sequence | switch fluorescence ratio |
| --- | --- |
| ATACGGAATG | 1.09 |
| GCGGCCGAGT | 1.05 |
| TTCCACTGG | 1.73 |
| GGCGCACAAG | 1.03 |
| CGTGAACCGT | 1.04 |
| AAGTTAAAGC | 1.09 |
| CTTCAGGGTA | 1.05 |
| ACAGTATACC | 1.19 |
| GGGTCTCTGG | 0.965 |
| ACTTTTTCTT | 1.01 |
| TACAAGGCGT | 0.979 |
| GATACAGAAT | 1.09 |
| ACAAGGGGAC | 1.02 |
| GGTGGGTAAG | 1.01 |
| AGAAGAAGC | 0.984 |
| CTGATACTGT | 0.989 |
| ACGTATTTCG | 1 |
| AAGCCAAGG | 0.97 |
| GGCTGAACGG | 1.02 |
| GCCACATTGT | 0.998 |
| ATGAACTTG | 1.07 |
| GTGGTCTGAT | 0.939 |
| CTTCAGAAC | 1.02 |

| Sequence | switch fluorescence ratio |
| --- | --- |
| ACTGGGTGAT | 1.05 |
| ACCATAGTAA | 1.04 |
| CTATATTCA | 1.02 |
| AGACTGTTGT | 1.02 |
| CACGGTACGG | 1.19 |
| AATGCGGGGC | 1.04 |
| TAGGGGTGCT | 0.993 |
| ATCTTTGCCA | 1.33 |
| GTCGTTGTTG | 0.99 |
| TAGAGCAGAT | 1.06 |
| CTGGAAACCA | 1.07 |
| AAACCGAGGG | 0.983 |
| TTTGAGCTAA | 0.993 |
| CATACGAAAC | 1.29 |
| CTTTAGAAGG | 0.923 |
| TATCAGACG | 1.02 |
| TTTTGGATAG | 0.98 |
| ATTAGGTCTC | 0.994 |
| GATTGTCACG | 0.934 |
| GCAAACTATC | 1.54 |
| TGAGTTGCCC | 0.99 |
| TTTTCACGA | 0.977 |
| ATAGTATGA | 1 |

| Sequence | switch fluorescence ratio |
| --- | --- |
| TGAGACCCGC | 1.04 |
| CCTGGAGTT | 1.04 |
| TATCCCCTTC | 1.03 |
| CAGGGCTAGC | 1.08 |
| TTTCGCCCCG | 1.11 |
| AAACGATATG | 1.03 |
| AGTGCCCTAA | 1.06 |
| TCAGGATTAA | 1.01 |
| CTAGCGCCCG | 0.976 |
| GTTGGCGAGG | 1.02 |
| CGGTGACTC | 1.01 |
| AATTATACGA | 1.06 |
| AACATATCAA | 1.01 |
| ATAGACATTC | 0.996 |
| CATTTTTTCC | 0.92 |
| CTATCTGAGC | 0.994 |
| ATTTTGGTGG | 1.01 |
| TAATGTCCTA | 1.01 |
| AGAGCCATTC | 0.977 |
| GTAAAGGGGT | 1 |
